This note sets out measurements from paper PMC9721059.

Amino acid sequences for entries named in this document (tags omitted). A change or cut given only in a name is not applied to a line headed by its entry.
UniProt Q9BPZ7: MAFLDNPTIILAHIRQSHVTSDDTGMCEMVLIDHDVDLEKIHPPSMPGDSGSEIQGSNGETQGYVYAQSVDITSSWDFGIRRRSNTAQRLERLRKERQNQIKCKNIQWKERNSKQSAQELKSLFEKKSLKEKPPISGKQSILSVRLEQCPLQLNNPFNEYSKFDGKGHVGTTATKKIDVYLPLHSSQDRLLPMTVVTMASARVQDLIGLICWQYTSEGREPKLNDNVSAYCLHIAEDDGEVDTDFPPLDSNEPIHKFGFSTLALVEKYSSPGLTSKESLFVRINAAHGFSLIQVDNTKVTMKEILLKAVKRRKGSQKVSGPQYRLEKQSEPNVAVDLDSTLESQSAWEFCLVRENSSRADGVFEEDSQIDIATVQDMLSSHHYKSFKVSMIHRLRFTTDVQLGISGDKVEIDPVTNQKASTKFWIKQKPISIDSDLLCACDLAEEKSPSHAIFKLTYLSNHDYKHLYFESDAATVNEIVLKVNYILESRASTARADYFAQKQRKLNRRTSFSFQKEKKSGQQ
UniProt Q13620: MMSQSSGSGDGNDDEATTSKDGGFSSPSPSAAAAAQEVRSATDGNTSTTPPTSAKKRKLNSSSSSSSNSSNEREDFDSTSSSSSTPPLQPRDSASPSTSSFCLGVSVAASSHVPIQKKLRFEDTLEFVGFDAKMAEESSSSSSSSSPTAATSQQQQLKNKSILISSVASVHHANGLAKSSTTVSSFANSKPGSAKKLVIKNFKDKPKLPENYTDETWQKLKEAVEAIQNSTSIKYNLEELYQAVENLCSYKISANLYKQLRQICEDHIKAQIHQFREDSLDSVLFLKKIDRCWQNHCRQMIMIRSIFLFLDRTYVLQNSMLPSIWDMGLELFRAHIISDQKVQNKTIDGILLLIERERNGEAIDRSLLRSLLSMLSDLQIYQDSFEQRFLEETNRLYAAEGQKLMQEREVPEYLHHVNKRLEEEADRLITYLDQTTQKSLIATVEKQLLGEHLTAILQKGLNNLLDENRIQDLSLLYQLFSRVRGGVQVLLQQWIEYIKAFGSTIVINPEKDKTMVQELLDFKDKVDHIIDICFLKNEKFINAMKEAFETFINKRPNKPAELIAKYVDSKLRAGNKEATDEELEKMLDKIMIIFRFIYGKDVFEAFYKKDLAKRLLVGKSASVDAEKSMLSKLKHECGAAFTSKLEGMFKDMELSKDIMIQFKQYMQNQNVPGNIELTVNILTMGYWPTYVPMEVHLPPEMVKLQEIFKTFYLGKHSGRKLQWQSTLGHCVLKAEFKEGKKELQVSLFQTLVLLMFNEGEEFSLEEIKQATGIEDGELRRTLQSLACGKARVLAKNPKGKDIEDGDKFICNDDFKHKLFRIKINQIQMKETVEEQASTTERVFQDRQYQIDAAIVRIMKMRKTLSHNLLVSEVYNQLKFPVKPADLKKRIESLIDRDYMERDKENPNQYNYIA

In assay [1] the target is SIN1 (stress-activated protein kinase (SAPK)-interacting protein 1), endogenous in TPC-1 cells (human (endogenous in TPC-1)) (UniProt Q9BPZ7). Put plainly: co-IP; endogenous proteins in TPC-1 cells; Mg132 (20 uM) added 6 h before harvest; 2 ug antibody overnight, protein A/G beads, three washes, western blot.
For assay [2], the target named is SIN1, tagged, ectopically expressed from a pCMV vector (UniProt Q9BPZ7). Put plainly: co-IP; 293T cells transfected with the indicated plasmids (SIN1, CUL4B, with or without AURKA); His-IP, western blot; Mg132 (20 uM) added 6 h before harvest. Background: In western blotting, separated proteins are transferred to a membrane and probed.
For assay [3] the target is unchanged. Put plainly: co-IP; ectopically expressed SIN1 and CUL4B (Fig. 5B); cells, tags and antibody not told for this panel.
Assay [4] has as its target T1, AURKA-Flag (Aurora kinase A), expressed from a pCMV vector in 293T cells (UniProt O14965).
T1 sequence: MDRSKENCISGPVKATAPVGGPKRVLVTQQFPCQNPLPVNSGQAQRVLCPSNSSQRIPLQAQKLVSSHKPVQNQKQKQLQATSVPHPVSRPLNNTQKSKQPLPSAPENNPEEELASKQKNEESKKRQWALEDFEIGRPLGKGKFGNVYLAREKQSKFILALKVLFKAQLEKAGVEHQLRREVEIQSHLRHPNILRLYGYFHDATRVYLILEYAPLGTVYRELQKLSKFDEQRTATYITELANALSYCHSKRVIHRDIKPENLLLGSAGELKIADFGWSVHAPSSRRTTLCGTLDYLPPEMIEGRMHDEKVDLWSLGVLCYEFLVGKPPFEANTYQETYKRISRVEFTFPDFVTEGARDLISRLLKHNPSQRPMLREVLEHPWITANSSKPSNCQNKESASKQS
The experiment in a line: co-IP; transfection-IP in 293T cells with SIN1 truncations (N, CRIM, RBD, PH); Mg132 (20 uM) added 6 h before harvest; western blot.

These are yes or no findings as the source states them, for the method shown. Binding seen in cells or lysates may run through a third protein. Some results given as binding are weak or reduced against the parent protein; the word gives no strength. For some assays here: Tags and fused reporters may be left off the sequences shown.

In the case of “CUL4B (Cullin4B), endogenous in TPC-1 cells (from UniProt Q13620 1-913)”, the binding entry in assay [1] was “binds”.

Consider “CUL4B (Cullin4B), tagged, ectopically expressed from a pCMV vector (from UniProt Q13620 1-913)”, for which the binding entry in assay [2] and in assay [3] was “binds” throughout.

Regarding “SIN1 truncation CRIM (from UniProt Q9BPZ7 139-267) (domain or fragment)”, the binding result in assay [4] was “no binding”.

B1: AURKA-Flag (Aurora kinase A), expressed from a pCMV vector in 293T cells (enzyme, UniProt O14965 1-403)
chain: MDRSKENCISGPVKATAPVGGPKRVLVTQQFPCQNPLPVNSGQAQRVLCPSNSSQRIPLQAQKLVSSHKPVQNQKQKQLQATSVPHPVSRPLNNTQKSKQPLPSAPENNPEEELASKQKNEESKKRQWALEDFEIGRPLGKGKFGNVYLAREKQSKFILALKVLFKAQLEKAGVEHQLRREVEIQSHLRHPNILRLYGYFHDATRVYLILEYAPLGTVYRELQKLSKFDEQRTATYITELANALSYCHSKRVIHRDIKPENLLLGSAGELKIADFGWSVHAPSSRRTTLCGTLDYLPPEMIEGRMHDEKVDLWSLGVLCYEFLVGKPPFEANTYQETYKRISRVEFTFPDFVTEGARDLISRLLKHNPSQRPMLREVLEHPWITANSSKPSNCQNKESASKQS
As for B1, the binding result in assay [2] is recorded as “binds”.
